According to PubChem BioAssay (NCI):
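Assay format: 96-well plates, 48-hour exposure. GI50 marks 50% less growth. TGI denotes the concentration required for complete inhibition of growth.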

System: NCI-H322M lung
Assay: NCI anticancer screen, dose series, 48 h

Going from `COc1cccc(C(N)=Nc2ccc(OCCCCCCCCn3cncn3)cc2)c1` to `COc1ccc(-c2nnc3c(/C=C/c4ccc(Br)cc4)nc4ccccc4n23)cc1`, the GI50 rises from 0.676 µM to 16.4 µM (24-fold).

Compared with `COc1cc2c(c(OC)c1OC)C(=O)CC(c1cccc(NC(=O)c3cccc([N+](=O)[O-])c3)c1)O2` (stereo not given), `O=C1Nc2cc(Cl)ccc2/C1=C/c1cccc(OCc2ccccn2)c1` is 4.3-fold lower in GI50: 66.6 µM for the first, 15.6 µM for the second.

With `CS(=O)(=O)Nc1ccc(-c2ccc3c(c2)ncn3-c2ccc(NC(=O)Nc3ccc(Cl)c(C(F)(F)F)c3)cc2)cc1` the GI50 was 3.63 µM.

Compared with `COc1cccc(C(N)=Nc2ccc(OCCCCCCCCn3cncn3)cc2)c1`, `COc1ccc(-c2nnc3c(/C=C/c4ccc(Br)cc4)nc4ccccc4n23)cc1` is lower in TGI: greater than 100 µM for the first, 39 µM for the second.

Going from `COc1cc2c(c(OC)c1OC)C(=O)CC(c1cccc(NC(=O)c3cccc([N+](=O)[O-])c3)c1)O2` (stereo not given) to `O=C1Nc2cc(Cl)ccc2/C1=C/c1cccc(OCc2ccccn2)c1`, the TGI falls from greater than 100 µM to 78.5 µM.

`CS(=O)(=O)Nc1ccc(-c2ccc3c(c2)ncn3-c2ccc(NC(=O)Nc3ccc(Cl)c(C(F)(F)F)c3)cc2)cc1` was tested, and the TGI was 14.2 µM.
